Source: patent publication US20210317454A1, “USE OF A TLR9 AGONIST IN METHODS FOR TREATING COVID-19” (priority 2020, published 2021)

System: SARS-CoV2
Settings: hypothesized

Substance: tilsotolimod: phosphorothioate oligonucleotide agonist of TLR9, sequence 5LTCG1AACG1TTCG1-X-G1CTTG1CAAG1CT-5′, X glycerol linker, G1 2′-deoxy-7-deazaguanosine (SEQ ID NO. 1) (DNA TCGAACGTTCGGCTTGCAAGCT; phosphorothioate, 7-deazaG, glycerol-linked 3'-3' dimer; (3)..(3) 2′-deoxy-7-deazaguanosine; (7)..(7) 2′-deoxy-7-deazaguanosine; (11)..(12) Linked by is a glycerol linker; (11)..(11) 2′-deoxy-7-deazaguanosine; (12)..(12) 2′-deoxy-7-deazaguanosine; (16)..(16) 2′-deoxy-7-deazaguanosine; (20)..(20) 2′-deoxy-7-deazaguanosine)
- duration of SARS-CoV2 viral infection: will shorten the duration of the SARS-CoV2 viral infection
